We go through three molecules from article PMC10300122.

No constants are given. Whether binding was seen depends on the method and setting. In cells and extracts the contact can be indirect. Some entries that bind do so weakly or less than the wild type. For part of these data: Where a sequence is shown, tags or fusion partners need not be part of it.

For one assay, the target named is ALKBH5-FLAG K235Q (UniProt Q6P6C2). Description: co-IP; ALKBH5 KO HeLa cells stably re-expressing ALKBH5-FLAG wild type, K235R or K235Q; precipitated with anti-FLAG (Fig. 6c) or anti-PSPC1 (Fig. 6d); western blot of endogenous PSPC1, NONO, SFPQ. (Immunoblotting shows a protein as a band on a membrane.)
For the next assay, the target named is ALKBH5-FLAG K235R (UniProt Q6P6C2). The description is as above.
For assay [1], the target named is T1, endogenous PSPC1 (human (endogenous in HeLa)) (UniProt Q8WXF1).
T1 sequence: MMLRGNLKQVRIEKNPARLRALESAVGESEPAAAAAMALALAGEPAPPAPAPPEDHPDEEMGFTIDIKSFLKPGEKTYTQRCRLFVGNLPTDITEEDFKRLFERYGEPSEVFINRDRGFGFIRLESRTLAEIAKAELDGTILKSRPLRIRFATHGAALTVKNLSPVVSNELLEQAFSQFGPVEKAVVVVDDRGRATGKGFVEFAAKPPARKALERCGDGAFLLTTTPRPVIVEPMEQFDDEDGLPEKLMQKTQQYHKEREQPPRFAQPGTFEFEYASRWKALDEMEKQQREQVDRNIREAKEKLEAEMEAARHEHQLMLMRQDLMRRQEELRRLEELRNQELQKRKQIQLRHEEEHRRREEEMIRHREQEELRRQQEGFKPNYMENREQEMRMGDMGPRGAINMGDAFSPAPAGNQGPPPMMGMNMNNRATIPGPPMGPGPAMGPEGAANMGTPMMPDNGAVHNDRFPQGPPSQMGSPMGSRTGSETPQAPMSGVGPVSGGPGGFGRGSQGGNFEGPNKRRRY
The description is as above.

The next assay addresses wild-type ALKBH5-FLAG (UniProt Q6P6C2). The assay is described as above.
Another assay deals with ALKBH5-HA (UniProt Q6P6C2). Description: co-IP; ALKBH5-HA and HDAC7-FLAG cotransfected into HeLa cells; precipitated with anti-FLAG (Fig. 3b) or anti-HA (Fig. 3c); western blot.
A further assay addresses T2, ALKBH5-FLAG 70-75 Del (UniProt Q6P6C2).
T2 sequence: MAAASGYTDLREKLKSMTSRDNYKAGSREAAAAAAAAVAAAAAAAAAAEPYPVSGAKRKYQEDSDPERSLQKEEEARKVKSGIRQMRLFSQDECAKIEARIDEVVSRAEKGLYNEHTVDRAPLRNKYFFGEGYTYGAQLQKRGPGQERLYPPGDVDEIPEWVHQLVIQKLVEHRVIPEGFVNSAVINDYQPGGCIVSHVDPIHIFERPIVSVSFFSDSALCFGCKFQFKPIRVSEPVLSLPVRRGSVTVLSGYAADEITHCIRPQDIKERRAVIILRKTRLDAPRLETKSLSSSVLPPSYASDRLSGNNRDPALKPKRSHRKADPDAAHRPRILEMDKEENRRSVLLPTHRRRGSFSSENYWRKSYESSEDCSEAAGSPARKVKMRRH
Kind of assay: co-IP; ALKBH5-FLAG mutants transfected into ALKBH5 KO HeLa cells; precipitated with anti-FLAG; endogenous PSPC1 detected.

For assay [2], the target named is ALKBH5 (in untransfected HeLa cells) (human (endogenous in HeLa)) (UniProt Q6P6C2). Kind of assay: co-IP; HeLa cells serum starved (0% FBS) for different times, or stimulated with 10% FBS after 2 days of serum deprivation; who was precipitated is not told.

B1: endogenous NONO (protein, UniProt Q15233 1-471)
chain: MQSNKTFNLEKQNHTPRKHHQHHHQQQHHQQQQQQPPPPPIPANGQQASSQNEGLTIDLKNFRKPGEKTFTQRSRLFVGNLPPDITEEEMRKLFEKYGKAGEVFIHKDKGFGFIRLETRTLAEIAKVELDNMPLRGKQLRVRFACHSASLTVRNLPQYVSNELLEEAFSVFGQVERAVVIVDDRGRPSGKGIVEFSGKPAARKALDRCSEGSFLLTTFPRPVTVEPMDQLDDEEGLPEKLVIKNQQFHKEREQPPRFAQPGSFEYEYAMRWKALIEMEKQQQDQVDRNIKEAREKLEMEMEAARHEHQVMLMRQDLMRRQEELRRMEELHNQEVQKRKQLELRQEEERRRREEEMRRQQEEMMRRQQEGFKGTFPDAREQEIRMGQMAMGGAMGINNRGAMPPAPVPAGTPAPPGPATMMPDGTLGLTPPTTERFGQAATMEGIGAIGGTPPAFNRAAPGAEFAPNKRRRY
Regarding B1, the binding result is “no binding” in the assay with ALKBH5-FLAG K235Q, “no binding” with ALKBH5-FLAG K235R, “binds” in assay [1] and “no binding” with wild-type ALKBH5-FLAG.

B2: HDAC7-FLAG (enzyme, UniProt Q8WUI4 1-952)
chain: MDLRVGQRPPVEPPPEPTLLALQRPQRLHHHLFLAGLQQQRSVEPMRLSMDTPMPELQVGPQEQELRQLLHKDKSKRSAVASSVVKQKLAEVILKKQQAALERTVHPNSPGIPYRTLEPLETEGATRSMLSSFLPPVPSLPSDPPEHFPLRKTVSEPNLKLRYKPKKSLERRKNPLLRKESAPPSLRRRPAETLGDSSPSSSSTPASGCSSPNDSEHGPNPILGSEALLGQRLRLQETSVAPFALPTVSLLPAITLGLPAPARADSDRRTHPTLGPRGPILGSPHTPLFLPHGLEPEAGGTLPSRLQPILLLDPSGSHAPLLTVPGLGPLPFHFAQSLMTTERLSGSGLHWPLSRTRSEPLPPSATAPPPPGPMQPRLEQLKTHVQVIKRSAKPSEKPRLRQIPSAEDLETDGGGPGQVVDDGLEHRELGHGQPEARGPAPLQQHPQVLLWEQQRLAGRLPRGSTGDTVLLPLAQGGHRPLSRAQSSPAAPASLSAPEPASQARVLSSSETPARTLPFTTGLIYDSVMLKHQCSCGDNSRHPEHAGRIQSIWSRLQERGLRSQCECLRGRKASLEELQSVHSERHVLLYGTNPLSRLKLDNGKLAGLLAQRMFVMLPCGGVGVDTDTIWNELHSSNAARWAAGSVTDLAFKVASRELKNGFAVVRPPGHHADHSTAMGFCFFNSVAIACRQLQQQSKASKILIVDWDVHHGNGTQQTFYQDPSVLYISLHRHDDGNFFPGSGAVDEVGAGSGEGFNVNVAWAGGLDPPMGDPEYLAAFRIVVMPIAREFSPDLVLVSAGFDAAEGHPAPLGGYHVSAKCFGYMTQQLMNLAGGAVVLALEGGHDLTAICDASEACVAALLGNRVDPLSEEGWKQKPNLNAIRSLEAVIRVHSKYWGCMQRLASCPDSWVPRVPGADKEEVEAVTALASLSVGILAEDRPSEQLVEEEEPMNL
Consider B2, for which, in the assay with ALKBH5-HA, the binding entry is recorded as “binds”.

B3: endogenous PSPC1 (protein, UniProt Q8WXF1 1-523)
chain: MMLRGNLKQVRIEKNPARLRALESAVGESEPAAAAAMALALAGEPAPPAPAPPEDHPDEEMGFTIDIKSFLKPGEKTYTQRCRLFVGNLPTDITEEDFKRLFERYGEPSEVFINRDRGFGFIRLESRTLAEIAKAELDGTILKSRPLRIRFATHGAALTVKNLSPVVSNELLEQAFSQFGPVEKAVVVVDDRGRATGKGFVEFAAKPPARKALERCGDGAFLLTTTPRPVIVEPMEQFDDEDGLPEKLMQKTQQYHKEREQPPRFAQPGTFEFEYASRWKALDEMEKQQREQVDRNIREAKEKLEAEMEAARHEHQLMLMRQDLMRRQEELRRLEELRNQELQKRKQIQLRHEEEHRRREEEMIRHREQEELRRQQEGFKPNYMENREQEMRMGDMGPRGAINMGDAFSPAPAGNQGPPPMMGMNMNNRATIPGPPMGPGPAMGPEGAANMGTPMMPDNGAVHNDRFPQGPPSQMGSPMGSRTGSETPQAPMSGVGPVSGGPGGFGRGSQGGNFEGPNKRRRY
Take B3: the binding entry with ALKBH5-FLAG K235Q is on record as “binds”; with wild-type ALKBH5-FLAG it was “binds”; with ALKBH5-FLAG 70-75 Del it was “no binding”; in assay [2], “binds”.
